# ChEMBL document CHEMBL5606460, “ASAP - DENV-2 NS2B-NS3 protease fluorescence single point” (2024)
# The whole screen tested about 2,000 compounds, of which about 110 (5.5%) showed an effect of 50% or more. The list shows a part of the results.
# Target: Genome polyprotein (dengue virus type 2) (UniProt P29990)
# [1] = Thailand/16681/1984, Concentration 25.0 uM, Number of replicates 1.0
smiles,measurement,setting,value
CCn1ccnc(NCC(=O)c2c[nH]c3ccccc23)c1=O,inhibition,"Thailand/16681/1984, Concentration 49.5 uM, Number of replicates 2.0, Standard deviation 3.110943672243224 %",-2.1%
same,inhibition,"Thailand/16681/1984, Concentration 99.01 uM, Number of replicates 2.0, Standard deviation 3.207728615150648 %",-2.61%
same,inhibition,"Thailand/16681/1984, Concentration 198.0 uM, Number of replicates 2.0, Standard deviation 4.205614512115071 %",-0.397%
Cc1nc(C2CCN(C(=O)c3ccn([C@H]4CCCNC4)n3)CC2)n[nH]1,inhibition,"Thailand/16681/1984, Concentration 49.5 uM, Number of replicates 2.0, Standard deviation 0.8219326667939915 %",-4.42%
same,inhibition,"Thailand/16681/1984, Concentration 99.01 uM, Number of replicates 2.0, Standard deviation 0.15240671313806178 %",-3.84%
same,inhibition,"Thailand/16681/1984, Concentration 198.0 uM, Number of replicates 2.0, Standard deviation 2.223365450237249 %",-4.59%
Nc1cccc2c(Cl)ccnc12,inhibition,"Thailand/16681/1984, Concentration 49.95 uM, Number of replicates 2.0, Standard deviation 9.3539447807875 %",25.3%
same,inhibition,"Thailand/16681/1984, Concentration 99.9 uM, Number of replicates 2.0, Standard deviation 4.02175613474424 %",68.2%
O=Cc1ccc(N2CCC(C(=O)N3CCC[C@H](c4ccccc4)C3)CC2)cc1,inhibition,[1],14.1%
O=Cc1ccc(N2CCC(C(=O)N[C@H]3C[C@@H]3c3ccc(F)c(F)c3)CC2)cc1,inhibition,[1],12.2%
c1ccc2c(CN3CC[C@H](c4c[nH]c5ccccc45)C3)c[nH]c2c1,inhibition,"Thailand/16681/1984, Concentration 50.0 uM, Number of replicates 2.0, Standard deviation 0.10838753302891979 %",1.47%
same,inhibition,"Thailand/16681/1984, Concentration 100.0 uM, Number of replicates 2.0, Standard deviation 0.23086560045200166 %",6.12%
same,inhibition,"Thailand/16681/1984, Concentration 200.0 uM, Number of replicates 2.0, Standard deviation 0.3197428515430465 %",11.5%
Cc1cc(NS(=O)(=O)c2ccc(Oc3ccccc3Cl)cc2)c(C(=O)NCC(F)(F)F)cc1F,inhibition,"Thailand/16681/1984, Concentration 49.5 uM, Number of replicates 2.0, Standard deviation 0.004288863304468577 %",80.7%
same,inhibition,"Thailand/16681/1984, Concentration 99.01 uM, Number of replicates 2.0, Standard deviation 0.05387243894141284 %",85%
same,inhibition,"Thailand/16681/1984, Concentration 198.0 uM, Number of replicates 2.0, Standard deviation 0.06674981844803736 %",82.2%
CC(C)(C)OC(=O)NC1CN(C(=O)C2CCN(c3ccc(C=O)cc3)CC2)C1,inhibition,[1],12.6%
Fc1ncccc1OCc1cc(Cl)nc(N2CCNCC2)n1,inhibition,"Thailand/16681/1984, Concentration 49.5 uM, Number of replicates 2.0, Standard deviation 1.2407104970939964 %",-5.68%
same,inhibition,"Thailand/16681/1984, Concentration 99.01 uM, Number of replicates 2.0, Standard deviation 1.7156619842641088 %",-7.07%
same,inhibition,"Thailand/16681/1984, Concentration 198.0 uM, Number of replicates 2.0, Standard deviation 0.643791762304754 %",-4.9%
O=C1C[C@@H](CNC(=O)c2cc(Cl)ccc2NS(=O)(=O)c2ccc(Oc3ccccc3Cl)cc2)CN1,inhibition,"Thailand/16681/1984, Concentration 49.5 uM, Number of replicates 2.0, Standard deviation 1.683767946709369 %",12.4%
same,inhibition,"Thailand/16681/1984, Concentration 99.01 uM, Number of replicates 2.0, Standard deviation 0.12281254481286434 %",57.2%
same,inhibition,"Thailand/16681/1984, Concentration 198.0 uM, Number of replicates 2.0, Standard deviation 0.21046989752060982 %",53.6%
CNC(=O)CCNS(=O)(=O)c1ccc(Oc2ccccc2Cl)cc1,inhibition,"Thailand/16681/1984, Concentration 49.5 uM, Number of replicates 2.0, Standard deviation 0.34853494426765735 %",-0.591%
same,inhibition,"Thailand/16681/1984, Concentration 99.01 uM, Number of replicates 2.0, Standard deviation 0.38589422688907765 %",0.431%
same,inhibition,"Thailand/16681/1984, Concentration 198.0 uM, Number of replicates 2.0, Standard deviation 0.13531355296228656 %",1.94%
O=Cc1ccc(N2CCC(C(=O)N3CCN(CCOc4ccccc4)CC3)CC2)cc1,inhibition,[1],11.7%
Cc1cc(Cl)c2cccc(N)c2n1,inhibition,"Thailand/16681/1984, Concentration 49.95 uM, Number of replicates 2.0, Standard deviation 0.6589137143756747 %",13.5%
same,inhibition,"Thailand/16681/1984, Concentration 99.9 uM, Number of replicates 2.0, Standard deviation 0.20071745394997703 %",27.6%
Cc1c(C(=O)N[C@@H](CO)CS(C)(=O)=O)ccc(O)c1NC(=O)c1ccncc1F,inhibition,"Thailand/16681/1984, Concentration 49.5 uM, Number of replicates 2.0, Standard deviation 0.32546689933300804 %",-1.36%
same,inhibition,"Thailand/16681/1984, Concentration 99.01 uM, Number of replicates 2.0, Standard deviation 0.3717289134489451 %",-0.135%
same,inhibition,"Thailand/16681/1984, Concentration 198.0 uM, Number of replicates 2.0, Standard deviation 0.28301457046410705 %",2.38%
NC(=O)[C@@H]1Cc2ccccc2CN1C(=O)C1CCN(c2ccc(C=O)cc2)CC1,inhibition,[1],12%
Cc1cc(CO)c2cccc(NC(=O)C3CC(N)C3)c2n1 (configuration not stated),inhibition,"Thailand/16681/1984, Concentration 49.95 uM, Number of replicates 2.0, Standard deviation 0.3514210972334106 %",31.4%
same,inhibition,"Thailand/16681/1984, Concentration 99.9 uM, Number of replicates 2.0, Standard deviation 0.19619256829384746 %",78.8%
COc1cc(CCNC(=O)C2CCN(c3ccc(C=O)cc3)CC2)cc(OC)c1,inhibition,[1],12.9%
O=Cc1ccc(N2CCC(C(=O)N(Cc3cccc(F)c3)C3CCCC3)CC2)cc1,inhibition,[1],15%
Nc1ccc(C(=O)Nc2nc3ccccc3s2)cn1,inhibition,"Thailand/16681/1984, Concentration 49.5 uM, Number of replicates 2.0, Standard deviation 0.2132030363528443 %",4.25%
same,inhibition,"Thailand/16681/1984, Concentration 99.01 uM, Number of replicates 2.0, Standard deviation 0.08901228959367372 %",2.13%
same,inhibition,"Thailand/16681/1984, Concentration 198.0 uM, Number of replicates 2.0, Standard deviation 0.004796985710115915 %",5.49%
O=Cc1ccc(N2CCC(C(=O)NCc3cncc(Br)c3)CC2)cc1,inhibition,[1],12.8%
Cc1cc(CO)c2cccc(CC(=O)NC[C@H](C)O)c2n1,inhibition,"Thailand/16681/1984, Concentration 99.9 uM, Number of replicates 2.0, Standard deviation 0.37872079112567497 %",-9.3%
NCc1cccc(NC(=O)[C@@H](NC(=O)OCc2ccccc2)c2ccc(F)cc2)c1,inhibition,"Thailand/16681/1984, Concentration 49.5 uM, Number of replicates 2.0, Standard deviation 2.4011437232418986 %",-4.62%
same,inhibition,"Thailand/16681/1984, Concentration 99.01 uM, Number of replicates 2.0, Standard deviation 1.9050608177527883 %",-3.96%
same,inhibition,"Thailand/16681/1984, Concentration 198.0 uM, Number of replicates 2.0, Standard deviation 2.2061626239616485 %",-3.52%
COCCCN(Cc1ccccc1)C(=O)C1CCN(c2ccc(C=O)cc2)CC1,inhibition,[1],16.7%
CCN(CC)C(=O)C1CCN(C(=O)C2CCN(c3ccc(C=O)cc3)CC2)CC1,inhibition,[1],11.7%
